In the supplement of paper PMC8728848:
The other results are listed elsewhere or left out.

Tests used:
Test in all cases: glycan array binding signal (z-score within array); higher = stronger binding
Settings in all cases: glycan notation: IUPAC condensed, linker removed
Neu5Ac(a2-8)Neu5Ac = target: Neu5Ac(a2-8)Neu5Ac
Outline: (§1)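 The binding signal is a Z-score computed within each array and averaged over linkers. Arrays of the same protein sequence at different concentrations or buffers were also averaged together. Data originate from 3228 arrays in the Consortium for Functional Glycomics database, kept only where the protein sequence was available.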

[1] = target: Neu5Ac(a2-8)Neu5Ac(a2-3)Gal(b1-3)GalNAc(b1-4)[Neu5Ac(a2-3)]Gal(b1-4)Glc
Outline: as §1

[2] = target: Neu5Ac(a2-8)Neu5Ac(a2-3)Gal(b1-3)GalNAc(b1-4)[Neu5Ac(a2-8)Neu5Ac(a2-3)]Gal(b1-4)Glc
Outline: as §1

[3] = target: Neu5Ac(a2-8)Neu5Ac(a2-3)Gal(b1-4)Glc
Outline: as §1

[4] = target: Neu5Ac(a2-8)Neu5Ac(a2-3)Gal(b1-4)GlcNAc
Outline: as §1

[5] = target: Neu5Ac(a2-8)Neu5Ac(a2-3)[Gal(b1-3)GalNAc(b1-4)]Gal(b1-4)Glc
Outline: as §1

[6] = target: Neu5Ac(a2-8)Neu5Ac(a2-3)[GalNAc(b1-4)]Gal(b1-4)Glc
Outline: as §1

[7] = target: Neu5Ac(a2-8)Neu5Ac(a2-8)Neu5Ac
Outline: as §1

[8] = target: Neu5Ac(a2-8)Neu5Ac(a2-8)Neu5Ac(a2-3)Gal(b1-4)Glc
Outline: as §1

[9] = target: Neu5Ac(a2-8)Neu5Ac(a2-8)Neu5Ac(a2-3)[Gal(b1-3)GalNAc(b1-4)]Gal(b1-4)Glc
Outline: as §1

[10] = target: Neu5Ac(a2-8)Neu5Ac(a2-8)Neu5Ac(a2-3)[GalNAc(b1-4)]Gal(b1-4)Glc
Outline: as §1

[11] = target: Neu5Ac(a2-8)Neu5Ac(a2-8)Neu5Ac(a2-8)Neu5Ac(a2-3)[GalNAc(b1-4)]Gal(b1-4)Glc
Outline: as §1

[12] = target: Neu5Ac(a2-8)Neu5Gc(a2-3)Gal(b1-4)GlcNAc
Outline: as §1

[13] = target: Neu5Ac(b2-6)Gal(b1-4)GlcNAc
Outline: as §1

Neu5Ac(b2-6)GalNAc = target: Neu5Ac(b2-6)GalNAc
Outline: as §1

[14] = target: Neu5Ac9Ac(a2-3)Gal(b1-3)GlcNAc
Outline: as §1

[15] = target: Neu5Ac9Ac(a2-3)Gal(b1-4)GlcNAc
Outline: as §1

[16] = target: Neu5Ac9Ac(a2-6)Gal(b1-4)GlcNAc
Outline: as §1

[17] = target: Neu5Gc(a2-3)Gal(b1-3)GlcNAc
Outline: as §1

[18] = target: Neu5Gc(a2-3)Gal(b1-3)[Fuc(a1-4)]GlcNAc
Outline: as §1

Neu5Gc(a2-3)Gal(b1-4)Glc = target: Neu5Gc(a2-3)Gal(b1-4)Glc
Outline: as §1

[19] = target: Neu5Gc(a2-3)Gal(b1-4)GlcNAc
Outline: as §1

[20] = target: Neu5Gc(a2-3)Gal(b1-4)GlcNAc(b1-3)Gal(b1-4)GlcNAc(b1-2)Man(a1-3)[Neu5Gc(a2-3)Gal(b1-4)GlcNAc(b1-3)Gal(b1-4)GlcNAc(b1-2)Man(a1-6)]Man(b1-4)GlcNAc(b1-4)GlcNAc
Outline: as §1

[21] = target: Neu5Gc(a2-3)Gal(b1-4)[Fuc(a1-3)]GlcNAc
Outline: as §1

[22] = target: Neu5Gc(a2-6)Gal(b1-4)GlcNAc
Outline: as §1

Neu5Gc(a2-6)GalNAc = target: Neu5Gc(a2-6)GalNAc
Outline: as §1

[23] = target: Neu5Gc(a2-8)Neu5Ac(a2-3)Gal(b1-4)GlcNAc
Outline: as §1

[24] = target: Neu5Gc(a2-8)Neu5Gc(a2-3)Gal(b1-4)GlcNAc
Outline: as §1

[25] = target: Neu5Gc(a2-8)Neu5Gc(a2-3)Gal(b1-4)GlcNAc(b1-3)Gal(b1-4)GlcNAc
Outline: as §1

[26] = target: Neu5Gc(a2-8)Neu5Gc(a2-6)Gal(b1-4)GlcNAc
Outline: as §1

[27] = target: Neu5Gc(b2-6)Gal(b1-4)GlcNAc
Outline: as §1

B1: PX9937D-bvu-500-26-500 (Bacteroides vulgatus) (protein)
chain: DPVSDITDLNYWKTPEQFDSFVFGLHSRFRSHSWNMFLLGEARSDVFGGIPFGGEATQGMERFPYNTLNAENPGISGFGDLYQNINQMNLFISRTLHTDVLTESARNYYLGQVYGLRAYYMYQLYRSWGDVVFTEEPSLGFEVGKLAKAATPAAEIFEQVKKDIESSLSYFGSDYTIKEKKSLWSKAATLMLKADVYLWSAHRDGGEGDARTAKNALVDIQNNISRSNLDLMDTYQGVFAYDNKGNKEIIFTIHNELFEYNLWNGNNDLFPQADYLGKFYNADGTLINTSVENNFGIMRLMVKLENFKKFLPGDTRRDVTLKDVYNKVENGKLELVGVYPHKYWGVMNGSTRVRCDDYPIYRYSDLLLMLAEAKVLLGEDPATEINRVRRRAFGDAYDASTVGFPNQEVDKRPADAVLQERLFEFMLEGKRWYDLRRFGDSYVLDYTPAEPARLLWPINQGALTNNPLLKQTVGY
- glycan array binding signal (z-score) (Neu5Ac(a2-8)Neu5Ac): -0.345
- glycan array binding signal (z-score) [1]: -0.051
- glycan array binding signal (z-score) [2]: -0.627
- glycan array binding signal (z-score) [3]: -0.468
- glycan array binding signal (z-score) [4]: -0.636
- glycan array binding signal (z-score) [5]: -0.284
- glycan array binding signal (z-score) [6]: 0.198
- glycan array binding signal (z-score) [7]: -0.49
- glycan array binding signal (z-score) [8]: -0.293
- glycan array binding signal (z-score) [9]: 0.02
- glycan array binding signal (z-score) [10]: -0.193
- glycan array binding signal (z-score) [11]: 0.072
- glycan array binding signal (z-score) [12]: 10.6
- glycan array binding signal (z-score) [13]: -0.299
- glycan array binding signal (z-score) (Neu5Ac(b2-6)GalNAc): 0.042
- glycan array binding signal (z-score) [14]: -0.36
- glycan array binding signal (z-score) [15]: -0.486
- glycan array binding signal (z-score) [16]: -0.121
- glycan array binding signal (z-score) [17]: -0.055
- glycan array binding signal (z-score) [18]: -0.231
- glycan array binding signal (z-score) (Neu5Gc(a2-3)Gal(b1-4)Glc): -0.135
- glycan array binding signal (z-score) [19]: -0.415
- glycan array binding signal (z-score) [20]: 0.552
- glycan array binding signal (z-score) [21]: -0.703
- glycan array binding signal (z-score) [22]: -0.608
- glycan array binding signal (z-score) (Neu5Gc(a2-6)GalNAc): -0.419
- glycan array binding signal (z-score) [23]: 0.105
- glycan array binding signal (z-score) [24]: -0.127
- glycan array binding signal (z-score) [25]: -0.056
- glycan array binding signal (z-score) [26]: -0.528
- glycan array binding signal (z-score) [27]: -0.259
